In PubChem BioAssay AID485344 (National Center for Advancing Translational Sciences (NCATS), 2010):
Where “and” joins values, the source holds several entries; their conditions need not be identical. Equal entries are not always repeated. In all, about 340,000 compounds went through this assay and about 6,900 (2%) were called active. Cut-off read from the data, not from the text of the source: active = inhibition above about 30%; inactive = below that, where a call was filed. The entries are a selection whose mix differs from that of the whole data set. Entries without a call were filed so in the source.

Biological target: D(2) dopamine receptor (Homo sapiens) (UniProt P14416)
UniProt P14416, sequence (P14416 whole entry, looked up): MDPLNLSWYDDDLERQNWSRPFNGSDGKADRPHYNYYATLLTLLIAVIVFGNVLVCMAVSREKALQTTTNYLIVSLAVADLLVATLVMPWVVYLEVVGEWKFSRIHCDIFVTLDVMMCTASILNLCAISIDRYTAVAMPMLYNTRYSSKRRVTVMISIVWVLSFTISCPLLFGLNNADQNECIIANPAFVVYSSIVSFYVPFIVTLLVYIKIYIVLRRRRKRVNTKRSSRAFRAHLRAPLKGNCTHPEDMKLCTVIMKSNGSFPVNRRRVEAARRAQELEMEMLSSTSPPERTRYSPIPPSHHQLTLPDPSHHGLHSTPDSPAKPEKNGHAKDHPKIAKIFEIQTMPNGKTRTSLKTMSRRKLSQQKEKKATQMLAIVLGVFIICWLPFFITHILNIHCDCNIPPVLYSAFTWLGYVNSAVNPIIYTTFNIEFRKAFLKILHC
Assay: HTS Assay for Allosteric Antagonists of the Human D2 Dopamine Receptor: Primary Screen for Antagonists; note: 0% is about no effect
Conditions: HEK293 TREx D2 cells, calcium flux, dopamine EC80; at 10 µM; stronger effect = higher value
Outline: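 Calcium mobilization kinetics were recorded at 1 s intervals in tetracycline-induced HEK293 T-REx D2 cells, first for 180 s after compound addition and then 180 s after EC80 dopamine.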

SMILES | inhibition
CCCCN1CCCc2cc(CN(CCCN3CCOCC3)C(=O)Nc3ccc(OCC)cc3)ccc21 | 8.89%
O=C(NCc1cccc(Cl)c1)C(=O)Nc1ccc2nc3n(c(=O)c2c1)CCCCC3 | 7.12%
COc1ccc(C)cc1Nc1c2c(nc3nc(-c4cccs4)nn13)CCCC2 | -17.9%
COc1cccc(CN2CCc3nc(SCC(=O)Nc4ccccc4)[nH]c(=O)c3C2)c1 | 15.8%
COc1cc(Nc2nc3ccccc3c3nnc(C)n23)cc(OC)c1 | 4.51%
CCN(CC)S(=O)(=O)c1ccc2c(c1)N(CC(=O)N1CCN(c3ccccc3F)CC1)C(=O)CO2 | -0.669%
CC1CCCN(CCCOc2ccc(Br)cc2Cl)C1 (stereo unspecified) | active: 36.5%
Cc1ccc2c(=O)c(C(=O)c3cccc(Cl)c3)cn(CC(=O)NCc3ccc(F)cc3)c2n1 | 1.82%
C=Cc1ccc(CN2C(=O)N(c3cccc(Cl)c3)S(=O)(=O)c3ccccc32)cc1 | -22.4%
COc1ccc(C(=O)n2nc(-c3ccco3)nc2NCc2cccs2)cc1 | -6.95%
COc1ccc(-n2ncc3c(NCCC4=CCCCC4)ncnc32)cc1 | -1.45%
Cc1noc(/C=C/c2ccco2)c1S(=O)(=O)N1CCC(C(=O)Nc2ccc(F)c(Cl)c2)CC1 | -1.22%
Cc1ccccc1-c1nc(CS(=O)(=O)CC(=O)NCc2cccc(Cl)c2)c(C)o1 | 11.2%
Cc1ccc(N2CC(C(=O)Nc3ccc(Br)cc3)CC2=O)cc1 (stereo unspecified) | 13.5%
CCC1=Nc2cc(C(=O)NC3CCCC3)ccc2Sc2ccc(Br)cc21 | -5.1%
O=C(/C=C/c1ccc(F)cc1)Nc1nc2n(n1)C(c1ccc(Cl)cc1)C=C(c1ccccc1)N2 (stereo unspecified) | 7.98%
COc1ccc(Cn2c(C(=O)O)c(CNC3CCCCCC3)c3ccc(OC)cc32)cc1 | -5.18%
Cc1ccc2sc(N3CCN(C(=O)CCS(=O)(=O)c4ccc(F)cc4)CC3)nc2c1C | 16.6%
COc1ccc(OC)c(CNC(=O)CCn2c(=O)c3cccn3c3ccc(F)cc32)c1 | 16.1%
CCc1ccc(-c2nn(CC(=O)NC3CCCC3)c3c2cnc2ccc(F)cc23)cc1 | 4.19%
COC(=O)c1ccccc1NC(=O)Cn1nnc2sc(-c3ccccc3)cc2c1=O | 4.14%

SMILES | inhibition
COc1ccccc1CNS(=O)(=O)c1cc2c3c(c1)CCN3C(=O)CC2 | -16.9% and active: 74.8%
COc1ccc(-c2nc(-c3ccccc3)c(-c3ccc(O)cc3)[nH]2)cc1 | -16.7%
CCOc1ccccc1NC(=O)NCCn1c(=O)oc2ccc(C)cc21 | 6.17%
COc1ccccc1C(=O)Nc1nc(-c2ccccc2)ns1 | -0.481%
COc1ccccc1C(=O)NCCn1cc(SCc2ccccc2Cl)c2ccccc21 | 2.27%
Cc1ccc(NC(=O)C(=O)NCC(c2cccnc2)N2CCc3ccccc32)cc1Cl (stereo unspecified) | 13.9%
Cc1c(Cl)cccc1NC(=O)CCn1nc(C)c2c(C)n(-c3ccccc3)nc2c1=O | 6.64%
O=C(Nc1ccc(F)c(Cl)c1)c1cc(S(=O)(=O)N2CCCc3ccccc32)ccc1F | 9.68%
CCOc1ccccc1NC(=O)CN1C(=O)C2(SCC(=O)N2c2cccc(F)c2)c2ccccc21 (stereo unspecified) | 8.28%
CCOc1ccc(C(=O)N2CCCCC2CCN2CCOCC2)cc1 (stereo unspecified) | 8.12%
COc1ccc(NC(=O)c2sc3nc(C)c(C(=O)Nc4ccc(Cl)cc4)c(-c4ccc(Br)cc4)c3c2N)cc1 | 11.3%
COc1cccc(-c2cc(C(=O)Nc3ccc(C)cc3)[nH]n2)c1 | 7.24%
COc1ccc(C(=O)N2CCc3cc(OC)c(OC)cc3C2COc2ccc3c(C)cc(=O)oc3c2)c(OC)c1 (stereo unspecified) | 12.3%
Cc1cc(C)n(-c2nc3ccccc3nc2Nc2cc(C(=O)O)ccc2C)n1 | 7.75%
Cc1ccc(CN2CCN(CC(=O)NCc3ccccc3Cl)C2=O)cc1 | -10%
COc1cc(NS(=O)(=O)c2ccc3c(c2)CCCN3C(C)=O)cc(OC)c1OC | -2.44%
Cc1cc(C)cc(-n2nnc(-c3nc(-c4ccccc4F)no3)c2C)c1 | 5.86%
COc1ccc(CNC(=O)c2ccc3c(c2)nc2n3CCCCC2)c(OC)c1 | -2.98%
c1csc(CSc2nc3ccccc3s2)c1 | active: 39.1%
CCOC(=O)c1cccc(NS(=O)(=O)c2cn(C)c(C)n2)c1 | 10.6%
Cc1ccc(C(=O)COC(=O)C2CC(=O)N(c3nc(-c4ccccc4)cs3)C2)cc1 (stereo unspecified) | active: 34.1%

SMILES | inhibition
COc1ccc(/C=C/c2noc(-c3ccccc3O)n2)cc1OC | 16.7%
Cc1ccccc1C(=O)NC1CC2CCCC(C1)N2Cc1ccccc1 (stereo unspecified) | active: 71.4%
COC(=O)c1ccccc1NC(=O)Cn1c(=O)n(-c2ccc(Cl)cc2)c(=O)c2c(C)c(C)sc21 | 10.4%
CCOc1ccc(OCC)c(NC(=O)CCc2c(C)nc3c(c2C)c(=O)n(C)c(=O)n3C)c1 | 13%
O=C(c1ccc2c(c1)N(Cc1ccccc1)C(=O)c1ccccc1S2(=O)=O)N1CCN(c2ccccn2)CC1 | -3.59%
CCSc1ncc(Cl)c(C(=O)Nc2c(C(=O)Nc3ccc(Cl)cc3)oc3ccccc23)n1 | -10.4%
COc1cc(C2c3c(oc4ccccc4c3=O)C(=O)N2c2nnc(C(C)C)s2)cc(OC)c1OC (stereo unspecified) | 19.6%
CCOc1ccccc1CNC(=O)c1cc(-c2ccc(OC)cc2)nc2ccc(C(C)C)cc12 | -18%
COc1ccc(NC(=O)COCc2cc(-c3cccs3)on2)cc1 | -15.7%
Cc1ccccc1C1C=C(c2ccc(Cl)cc2)Nc2nnnn21 (stereo unspecified) | 2.67%
O=C(CCN1CCN(c2ccccc2)CC1)NNC(=O)c1cccc2ccccc12 | active: 85.3%
CN1C(=O)Cc2cc(S(=O)(=O)CCC(=O)N3CCN(c4ccccc4F)CC3)ccc21 | 1.48%
COc1ccc(-c2cc(C(F)(F)F)n3nc(C(=O)Nc4cccc(Cl)c4C)cc3n2)cc1 | 8.9%
CCOC(=O)c1ccc(NC(=O)Cn2cnc(S(=O)(=O)N3CCCC3)c2)cc1 | 8.84%
COc1ccc(-n2nc3c(N4CCCC(C(=O)NCCc5ccc(C)cc5)C4)nnc(C)c3c2C)cc1 (stereo unspecified) | -17.7%
CC(C)CNc1ncnc2c1sc1nc(N3CCOCC3)c3c(c12)CC(C)(C)OC3 | active: 32.9%
COc1ccc(-n2cc(-c3ccccc3)nc2SCC(=O)Nc2ccccc2)cc1Cl | 11.7%
CCc1ccc(S(=O)(=O)c2nnn3c2nc(N2CCCC2)c2sccc23)cc1 | 11.4%
CCc1ccc(NC(=O)N2CC(C)Oc3ccc(C)cc32)cc1 (stereo unspecified) | 7.14%
